Experimental data from the supplement of paper PMC3334620.
Over roughly 33,000 sequences, “E-score (-0.5 to 0.5)” has its median near -0.054; the highest 2% begin near 0.35. The list shows a part of the results.

Biological target: T1, Stb5 (UniProt P38699)
T1 sequence: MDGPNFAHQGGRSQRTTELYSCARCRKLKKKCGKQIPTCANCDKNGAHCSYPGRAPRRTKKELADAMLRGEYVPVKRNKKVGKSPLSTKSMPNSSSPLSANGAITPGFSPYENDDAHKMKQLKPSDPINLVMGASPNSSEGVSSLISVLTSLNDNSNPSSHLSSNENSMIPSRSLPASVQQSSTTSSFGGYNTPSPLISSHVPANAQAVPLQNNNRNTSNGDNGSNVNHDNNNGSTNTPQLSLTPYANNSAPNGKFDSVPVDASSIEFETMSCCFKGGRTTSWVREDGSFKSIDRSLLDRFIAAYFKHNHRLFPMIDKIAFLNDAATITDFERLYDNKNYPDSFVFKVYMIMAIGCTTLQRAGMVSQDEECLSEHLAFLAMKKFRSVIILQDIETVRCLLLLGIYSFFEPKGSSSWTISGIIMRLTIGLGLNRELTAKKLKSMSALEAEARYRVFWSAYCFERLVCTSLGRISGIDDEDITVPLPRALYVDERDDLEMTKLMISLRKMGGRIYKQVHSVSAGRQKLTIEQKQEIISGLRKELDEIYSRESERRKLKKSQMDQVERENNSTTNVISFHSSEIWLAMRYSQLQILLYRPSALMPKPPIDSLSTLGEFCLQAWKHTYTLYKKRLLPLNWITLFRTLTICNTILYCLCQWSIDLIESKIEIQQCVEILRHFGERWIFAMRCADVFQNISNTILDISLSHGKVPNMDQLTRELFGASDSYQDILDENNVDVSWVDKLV
Assay: PBM E-score (8-mer binding enrichment) (E-score (-0.5 to 0.5)); higher = stronger / more preferred TF binding; most listed sequences are background and not binding sites
Conditions: protein concentration: 200 nM; construct: GST-full length
Experimental: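 Universal 'all 10-mer' protein binding microarrays (Agilent AMADID 015681) probed with GST-tagged S. cerevisiae TFs (full-length or DBD) made by in vitro transcription/translation (PURExpress), about 100-200 nM. Bound TF was detected with fluorescent anti-GST. Each ungapped 8-mer (which stands for itself and its reverse complement) is scored by the PBM enrichment score (E-score), a modified Wilcoxon-Mann-Whitney statistic from -0.5 to +0.5, computed with the Universal PBM Analysis Suite. Scale: above 0.35 generally sequence-specific binding.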

Sequence	PBM E-score
CACGGCGA	0.162
GATGTATA	0.11
ACTACTCC	0.199
TCCTGGAA	-0.17
CCCACACC	-0.147
GGTGTTCA	0.231
AGGTGACC	-0.212
AGCAGCAT	-0.152
CGAGCTGA	-0.0653
CGACTGCC	-0.0292
ATTAAACG	-0.0501
GACCTTCA	-0.0115
ACAGCTCG	-0.163
CTAGTAAA	0.013
ACAGGCGA	-0.213
ACGAAAAC	-0.081
CTGGCTTC	-0.238
CTATCGTC	-0.135
ATCCCAAC	-0.19
CAAAACTG	0.0108
AAGCGGCT	0.169
AAAGTCGT	-0.217
TATGGGGA	-0.0774
AAGGACGT	-0.206
ACATGCCG	0.236

Sequence	PBM E-score
ATCATAGA	-0.0223
TAGCGCTA	0.252
ATCGGTAC	0.303
ATGTTGGC	0.0534
AAGTGACC	-0.109
CGAAGGCA	-0.121
CGCGTCAC	-0.194
CTCTTGGC	-0.232
CCTTTGAC	-0.15
GAAGCTGC	-0.103
CCAACTTA	-0.0503
ATTTCAGG	-0.101
GCCATTGA	0.0433
AAGACTAA	-0.0277
AATGTGAG	-0.126
GTTTAAAA	0.111
ATGTCACA	-0.254
TGATGGAA	-0.079
AGAATGCG	0.0356
AGCAGCCG	-0.128
ATCTCGCA	-0.049
TCAGCCAA	-0.23
GCGATAAA	0.0533
CGGCGAGC	0.0148
ACTGGGAG	-0.112

Sequence	PBM E-score
AGAGCCCT	-0.338
TGACGGAA	0.168
AGGCACTG	-0.388
CGAAGACA	0.0655
CCTGCAAG	-0.179
GCAAATTA	0.0963
CCACTGGC	-0.135
AACGCGCT	0.0979
AAGTTGCC	-0.0222
AAGGCTCA	-0.21
ATGGCCCG	0.132
ACATCATG	-0.102
TACTCTAA	-0.0253
AGGGGTCA	-0.181
CATTCGTA	-0.256
GCTGACAC	0.044
CAGGCGAA	-0.257
AGCGGGGG	0.277
AATAGTAA	-0.155
AGTTCTTC	-0.213
ATCTTTTG	-0.0814
ACTACACG	-0.139
CGCTTCAA	0.00623
GCGCTTTA	0.115
CCTTTCGA	-0.0952

Sequence	PBM E-score
CACGGCTA	0.0563
ACTAGCTA	-0.195
AGGGCTAA	0.124
ACGAGAGC	-0.238
TCGGACCA	0.214
CTATGACC	0.143
GCGAGATA	0.0446
AACTATCG	0.0925
GACTAGGA	-0.106
AGTTACTA	-0.107
CGATCAAG	0.0257
GAGCAACA	0.0193
CTGGCCTA	-0.172
CAAGAGTC	-0.114
ACATTCTG	-0.223
CCCAGATC	-0.089
GTTTGTAA	0.0105
ATGGAAAC	-0.0713
CAGACAAA	-0.223
CACTGGGG	-0.164
ATACCCGG	0.239
GCATAACC	0.0353
GCGTCGTA	0.109
CCTGCAGA	0.0696
CACAATGC	-0.0146

Sequence	PBM E-score
AACCGCCC	0.107
ATGAATCG	0.0204
GAAAGCAC	-0.0257
AGCGGGAC	0.303
GATTACGA	-0.089
GCAGTGGA	-0.276
ACACTTAG	-0.035
GATGGAGC	-0.0679
GACTGCCC	-0.241
AAGGCTAA	-0.149
CGAGTTAG	-0.0646
GACAGGGA	-0.195
AAAGCGTT	-0.145
CCCGTAGG	0.133
GGCACCCA	-0.036
CTACACAA	-0.192
ATAGCCGG	0.373
CCTCCATA	-0.00496
CGCTCCCA	0.0448
CCTAACTA	0.0195
TCGGGCAA	0.102
GTTGCGAA	-0.289
GTCGGTAA	0.32
AGACAGCG	0.165
CGCACGGC	0.178

Sequence	PBM E-score
ATATAAAC	0.143
AGTCGGCC	0.323
GGGTTTAA	0.398
CTTACCAC	-0.0644
GAGGAATC	-0.107
AATACAAC	-0.0247
AATAACCA	-0.178
ATGATTAC	0.0188
AGCCAGTA	-0.203
AAATAAAA	0.108
ACATTCAG	-0.083
TAGATATA	0.0276
AACGATGC	-0.174
ATGTTGAA	-0.0618
CTCAATGC	-0.0189
AGTTTCAA	-0.133
AAACGAGT	-0.0471
AGCTCCTC	-0.184
CCGTGCCC	0.177
TCCACGAA	-0.0585
GACATTAA	0.17
CCCCACGA	-0.124
CATGAGGA	-0.0503
CGACTTGC	-0.071
TACAGCTA	-0.121

Sequence	PBM E-score
ACGCAAAT	0.0568
CGTGAAAC	-0.0554
GTGAGGAA	-0.0135
ACAATGAT	-0.194
AAGATCCA	-0.0416
CTTTCTTA	-0.0519
GTTCAATA	-0.0103
CTTCCGGA	0.209
GCGTAATA	-0.0481
AGTACGCG	-0.124
GACTCGGC	-0.0915
GAATAGTC	-0.0467
TATCCCCA	0.137
CACTCCAA	-0.0396
ATAGCTCC	0.307
CAAAAGTC	-0.00605
ATGGGAAA	-0.302
GTGTCTTA	-0.0737
ACCATAGT	-0.0253
GCTATACA	0.069
GTAAACAA	-0.0333
CGCCATCC	0.0869
GCTTACGA	-0.183
GTAATAGA	-0.0887
ATTCTAAC	-0.0956

Sequence	PBM E-score
AAAGAAAA	0.0994
CGTCTCAA	0.0236
CCCCTTAC	-0.135
AATTTACA	-0.26
AGTATACG	-0.104
ATAACATC	0.14
ACTACGCC	-0.0766
CAATAGCA	-0.0614
GGAAAGAA	-0.0287
ATGGTATA	-0.0447
TGGCGCCA	0.0517
ACTGGGTC	-0.15
CCTGGGAC	-0.284
CGGGGTCA	0.441
TGCGCCAA	-0.0016
AACCTCTG	-0.105
CCCTCCCA	2e-05
AACAAGTA	-0.216
AATGCACT	-0.224
TACAAGCA	-0.0168
CCATTGTA	0.00712
TGCCGACA	0.298
ACGTATAT	-0.0179
CCCGAAAC	0.049
ATCTGGTC	-0.153

Sequence	PBM E-score
GACAAACA	0.0621
TGATGCAA	-0.0456
ACCCGGAA	0.214
CAAAATTC	0.153
CATCCCCG	0.264
CTGAAGGC	-0.0853
GTCTAGAA	0.0572
TATTTAGA	0.103
ATGATAGC	0.0851
AAGAATTA	-0.0159
GAAAGTCA	-0.148
AAAGCCCA	0.0226
CGACCTCG	0.0652
ACAATAAT	-0.0887
ACTGAAGC	-0.111
CACTCCTG	-0.218
TCACGAGA	-0.299
GCACCAGA	-0.129
CCGCTTTC	0.243
AGCCGCAA	-0.00405
GGGCTTCA	-0.0612
CAAACGCG	0.0779
ATAGTCAG	-0.222
AACGCGAC	-0.173
ATTACCTC	0.0374

Sequence	PBM E-score
GCGTTAGA	0.115
AATTAACG	-0.0564
ATGCAAAG	-0.0333
CGTGTGTC	0.152
ATGCTTCG	0.0216
ACGTTTAG	-0.231
GCCAATTA	-0.194
ACAGGATC	-0.312
CTCACGTC	-0.122
GAAACGAA	-0.0793
AAAATATG	-0.097
CGGGACTA	0.451
CCCAATTA	-0.0602
GAAGTGAC	-0.0109
CCACATGA	-0.208
CGAAGGGC	0.00778
GGATGCGA	-0.00405
CTTATCAC	-0.157
ACCCTATA	-0.29
ATTCCATC	-0.122
AGGAAACT	-0.203
CGGGCGGA	0.359
AAAGATAA	-0.115
GGCCTTAC	0.248
CAGGACCG	0.173

Sequence	PBM E-score
CTACAGGA	-0.00469
CGGGCTCC	0.0609
AAATGATC	-0.138
CCAACAGG	-0.214
CTATATAC	0.041
CCCGTTCA	0.206
ACCTGATA	0.0218
TTGACAAA	-0.102
AAAGGGGG	-0.11
GGTACTAA	0.306
ACAATCGT	-0.257
GTGGCTAA	-0.0732
CCAAGCGG	0.228
ACGATCCC	-0.0871
AGAGCAAG	-0.13
ACACGAGT	-0.0819
GGCCACCA	-0.252
GCGGTATA	0.28
CGTCCATA	0.0932
CGGAATTA	0.417
ATTGCAAG	-0.375
AAGGCTAT	0.00504
CATGTGGC	-0.0206
CCCGAAAG	0.17
AGGCAGAA	0.0356

Sequence	PBM E-score
AGATCACA	-0.0286
CTAGCCGC	-0.0169
CCACTTAC	0.0896
AGAGATCC	-0.0189
ACTACAAT	-0.0293
GGCGCGCC	0.149
AGGCATCC	-0.261
ATAACACG	-0.0233
ATTTCCCA	-0.308
GGAAGTTA	0.0793
AATCAAAC	-0.0315
CCCCCCGG	0.0942
GGTTCATA	-0.09
CTGTGAAG	-0.136
CGAACAGC	-0.0162
CCTGTTAC	-0.0548
CCCTGTGA	-0.223
CGATCTAC	-0.118
GTTGCTAA	0.0236
AGACCAAG	-0.116
ACCGGTAC	0.397
GAATGCAA	-0.0267
TGGAGGAA	-0.205
CGATAAGC	0.113
AGATAGGG	-0.136

Sequence	PBM E-score
CGATTCTA	0.037
CTGCCAAA	-0.0948
CTACCGCC	0.305
AAAAGTCC	0.347
AAGAAGGT	-0.0403
AGTCCACT	-0.226
AAGAACGG	0.249
AGAAGGCC	0.152
AAGTCATC	-0.283
CCTTAGCC	-0.0579
TCTAAAGA	-0.133
ACGGGCAC	0.105
AACCTTAT	-0.107
AACGGATA	0.244
CCAGTCAA	-0.296
ACTCCGGA	0.355
AATAGATC	0.0939
CGCGAGGC	0.00115
ATGCGAAT	-0.0634
GAAAATGA	-0.0725
AATAATGA	-0.0387
AGACTACC	-0.151
ATCAAACC	0.0713
GCATAGCC	-0.134
AACGAGTA	-0.106

Sequence	PBM E-score
CGTGGATA	0.0322
AGCACACT	-0.21
AAGCGGTC	0.26
ATCCAGTC	-0.0623
GCGGTACA	0.296
ACGTTCAG	-0.26
ATCAGATC	-0.216
CAATTGTA	-0.111
ACAACCCC	0.108
GATGGTAC	0.0392
AGGGACTG	-0.202
ATACGCGG	0.247
GTGTTTAA	0.165
ACGATTAG	-0.266
GCAAAAGA	-0.0404
ATAGCCCG	0.176
AAGTGATT	-0.0326
ATTCCTCC	0.159
CTAACGAA	-0.00775
